± gives the standard deviation. The entries are a selection whose mix differs from that of the whole data set.

The assay concerns MIWI (PIWIL1) piRISC loaded with L1MC piRNA (30 nt). Put plainly: pre-steady-state target cleavage rate (min^-1); MIWI and MILI are mouse PIWI proteins and EfPiwi is from a freshwater sponge; tags in brackets are library labels; higher = faster piRNA-guided slicing of the target. The note with it: guide: L1MC piRNA 5'p-UAACUAAAUACUAUGCAAGCUGUAGGUCCU; auxiliary factor: 500 nM mouse GTSF1. The method in brief:
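The method was Cleave-'n-Seq, in which uncleaved targets from a transcribed, DNA-blocked target RNA library were sequenced after exposure to active affinity-purified piRISC carrying one synthetic guide, with or without GTSF1 partner protein. Reactions contained 0.1 nM library, 1 nM piRISC and, where present, 500 nM GTSF1 in HEPES–potassium acetate buffer at 33 °C for 0–8 or 0–960 min. Reads were normalised to depth and to weakly complementary targets, three trials were pooled, and k3 was capped at 0.0001 min^-1. The pre-steady-state cleavage rate came from a burst-and-steady-state fit.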
In the case of UCCUCCUUCAGCUUGCAUAGUAUUUUCAAA, the “pre-steady-state target cleavage rate” value is 0.294 ± 0.035.

UCCACCUACAGCUUGCAUUCUAUUUUCAAA: the “pre-steady-state target cleavage rate” value came out at 0.0152 ± 0.0073.

Take UGGACCUACAGCUUGGUAAGUAUUUAGUAA: the “pre-steady-state target cleavage rate” value stood at 0.00984 ± 0.0043.

Take UCCACCAUCAGCUUGCAUAGUAUUUUCAAA: the “pre-steady-state target cleavage rate” value amounted to 0.273 ± 0.032.

UCCUGGAACAGCAAGCAUAGUAUUUAGAAA: the “pre-steady-state target cleavage rate” value amounted to 0.118 ± 0.022.

In the case of UCCACCUACAGCUUCCAUACUAUUUAGUUA, the “pre-steady-state target cleavage rate” value stood at 0.0526 ± 0.02.

Turning to UCCUGGUACAGCUAGCAUAGUAUUUUCAAA, the “pre-steady-state target cleavage rate” value turned out to be 0.162 ± 0.03.

Turning to UCCUCCUACAGCUUGCAUAGUAAAUAGAAA, the “pre-steady-state target cleavage rate” value worked out at 0.191 ± 0.04.

For the sequence UCGACCUACAGCUUGCAUAGAUUUUAGAAA, the “pre-steady-state target cleavage rate” value turned out to be 0.214 ± 0.062.

Regarding UCCUGGAACUCCUUGCAUAGUAUUUAGAAA, the “pre-steady-state target cleavage rate” value stood at 0.0445 ± 0.014.

For UCCACCUACAGCUUGCUAAGUAUUUAGAAA, the “pre-steady-state target cleavage rate” value stood at 0.0236 ± 0.0081.

Take UCCUGGAUCAGCUUGCAUAGUAAAAAGUUA: the “pre-steady-state target cleavage rate” value came out at 0.0272 ± 0.0069.

Turning to UCCUGGUACAGCUUCCAUAGUAUUUAGUAA, the “pre-steady-state target cleavage rate” value worked out at 0.0195 ± 0.01.

UCCUGGAUGUCCUUGCUUACUAUUUAGUUA: the “pre-steady-state target cleavage rate” value stood at 0.00457 ± 0.0044.

Take UCCUGCUACAGCUACGAUAGUAUUUAGUUA: the “pre-steady-state target cleavage rate” value is 0.143 ± 0.023.

For the sequence UCCUGCAACAGCUUGCAUAGUAUUUUCAAA, the “pre-steady-state target cleavage rate” value came out at 0.194 ± 0.036.

As to UCCUGGAUGUCGAACCAAAGAAUUUAGUUA, the “pre-steady-state target cleavage rate” value is < 0.0001.

Turning to UCCUGGAUGAGCAUCCAUAGUAUUUAGUUA, the “pre-steady-state target cleavage rate” value was determined as 0.0384 ± 0.013.

Turning to UCCUGCUACAGCAAGCAUAGUAUUUACAAA, the “pre-steady-state target cleavage rate” value amounted to 0.231 ± 0.057.

In the case of UCGACCUACAGCUUGCAUUGUAUUUUCAAA, the “pre-steady-state target cleavage rate” value stood at 0.128 ± 0.024.

For the sequence UCCUGGAACAGCUUGCAUAGUAAAAAGAAA, the “pre-steady-state target cleavage rate” value turned out to be 0.014 ± 0.0079.

UCCUGGAUGUCCUAGCAUAGUAUUUAGUAA: the “pre-steady-state target cleavage rate” value stood at 0.0129 ± 0.0075.

On to UGGACCUACAGCUUGCAUAGUAUAUAGAAA, for which the “pre-steady-state target cleavage rate” value is 0.268 ± 0.046.

Consider UGGACCUACACGAUGCAUAGUAUUUUCAAA, for which the “pre-steady-state target cleavage rate” value was 0.0643 ± 0.014.

Source of the values: the supplement of paper PMC10338343.
